# Source: patent US20230250147A1, “GLP-1R AGONISTIC PEPTIDES WITH REDUCED ACTIVITY” (SANOFI, priority 2020, published 2023)
# Biological target: T1, Human GLP-1R (Homo sapiens, UniProt P43220)
# T1 construct: expressed in transfected cells; host or cells: HEK-293
# Assay: HTRF cAMP assay in HEK-293 cells, human GLP-1R
# Format: cell-based
# Method: Recombinant HEK-293 cells were grown in T175 culture flasks placed at 37° C. to near confluence in medium (DMEM with 10% FBS) and collected in 2 mL vials in cell culture medium containing 10% DMSO in concentrations of 1-5×10^7 cells/mL. Each vial contained 1.8 mL cell suspension. The vials were slowly frozen to −80° C. in an isopropanol chamber, and then transferred to liquid nitrogen for long term storage.
# Prior to their use, frozen cells were thawed quickly at 37° C., washed with 20 mL cell buffer (1×HBSS; 20 mM HEPES, 0.1% BSA) and centrifuged for 5 minutes at 900 rpm. Cells were resuspended in assay buffer (cell buffer plus 2 mM IBMX) and adjusted to a cell density of 1×10^6 cells/mL. For measurement, 5 μL cell suspension (final 5×10^3 cells/well) and 5 μL of test compound were added to a well of a 384-well plate, followed by incubation for 30 minutes at room temperature. […] The cAMP content of cells was determined using a kit from Cisbio Corp. (cat. no. 62AM4PEC) based on Homogenous Time Resolved Fluorescence (HTRF).
# T1 sequence (P43220 24-463): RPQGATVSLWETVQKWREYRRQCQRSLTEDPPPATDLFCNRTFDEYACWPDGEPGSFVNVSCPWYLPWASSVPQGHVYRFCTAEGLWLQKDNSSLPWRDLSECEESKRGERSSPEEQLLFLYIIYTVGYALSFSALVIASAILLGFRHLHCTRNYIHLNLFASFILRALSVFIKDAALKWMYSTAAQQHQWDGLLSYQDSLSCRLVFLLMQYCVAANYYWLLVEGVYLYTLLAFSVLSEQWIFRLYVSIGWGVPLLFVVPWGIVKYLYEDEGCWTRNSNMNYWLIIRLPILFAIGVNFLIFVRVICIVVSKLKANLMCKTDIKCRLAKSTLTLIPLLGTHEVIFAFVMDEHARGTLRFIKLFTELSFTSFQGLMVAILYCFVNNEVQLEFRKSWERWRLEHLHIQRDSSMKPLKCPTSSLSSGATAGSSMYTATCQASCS
row,Molecule,EC50 [nM]
1,"148 (protein, Fusion Protein) HGEGTFTSDKSQLLEKRLAHLFIEWLIAGGPSSGKYSPKGGGGGGGSGGGGSGGGGSA[… human IgG4 Fc with changes …]GGGSGSAHPIPDSSPLLQFGGQVRQRYLYTDDACQTEAHLEIREDGTVGGAADQSPESLLQLKALKPGVIQILGVKTSRFLCQRPDGALYGSLHFDPEACSFRELLLEDGYNVYQSEAHGLPLHLPGCKSPHRDPAPRGPARFLPLPGLPPAPPEPPGILAPQPPDVGSSDPLSMVGSQGRSPSYAS",0.00848
2,"150 (protein, Fusion Protein) HGEGTFTSDKSQLLEKELAHLFIEWLIAGGHSKGRPPPKGGGGGGGSGGGGSGGGGSA[… human IgG4 Fc with changes …]GGGSGSAHPIPDSSPLLQFGGQVRQRYLYTDDACQTEAHLEIREDGTVGGAADQSPESLLQLKALKPGVIQILGVKTSRFLCQRPDGALYGSLHFDPEACSFRELLLEDGYNVYQSEAHGLPLHLPGCKSPHRDPAPRGPARFLPLPGLPPAPPEPPGILAPQPPDVGSSDPLSMVGSQGRSPSYAS",0.0115
3,"151 (protein, Fusion Protein) HGEGTFTSDKSQLLEKRLAHLFIEWLIAGGHSSGRYSPKGGGGGGGSGGGGSGGGGSA[… human IgG4 Fc with changes …]GGGSGSAHPIPDSSPLLQFGGQVRQRYLYTDDACQTEAHLEIREDGTVGGAADQSPESLLQLKALKPGVIQILGVKTSRFLCQRPDGALYGSLHFDPEACSFRELLLEDGYNVYQSEAHGLPLHLPGCKSPHRDPAPRGPARFLPLPGLPPAPPEPPGILAPQPPDVGSSDPLSMVGSQGRSPSYAS",0.00866
4,"152 (protein, Fusion Protein) HGEGTFTSDKSQLLEKRLAHLFIEWLLAGGHSSIRPPPKGGGGGGGSGGGGSGGGGSA[… human IgG4 Fc with changes …]GGGSGSAHPIPDSSPLLQFGGQVRQRYLYTDDACQTEAHLEIREDGTVGGAADQSPESLLQLKALKPGVIQILGVKTSRFLCQRPDGALYGSLHFDPEACSFRELLLEDGYNVYQSEAHGLPLHLPGCKSPHRDPAPRGPARFLPLPGLPPAPPEPPGILAPQPPDVGSSDPLSMVGSQGRSPSYAS",0.00943
5,"153 (protein, Fusion Protein) HGEGTFTSDKSQLLEKRLAHLFIEWLLAGGHSSIKPPPKGGGGGGGSGGGGSGGGGSA[… human IgG4 Fc with changes …]GGGSGSAHPIPDSSPLLQFGGQVRQRYLYTDDACQTEAHLEIREDGTVGGAADQSPESLLQLKALKPGVIQILGVKTSRFLCQRPDGALYGSLHFDPEACSFRELLLEDGYNVYQSEAHGLPLHLPGCKSPHRDPAPRGPARFLPLPGLPPAPPEPPGILAPQPPDVGSSDPLSMVGSQGRSPSYAS",0.00998
6,"155 (protein, Fusion Protein) HGEGTFTSDKSQLLEKRLAHLFIEWLIAGGHSKGRLPPKGGGGGGGSGGGGSGGGGSA[… human IgG4 Fc with changes …]GGGSGSAHPIPDSSPLLQFGGQVRQRYLYTDDACQTEAHLEIREDGTVGGAADQSPESLLQLKALKPGVIQILGVKTSRFLCQRPDGALYGSLHFDPEACSFRELLLEDGYNVYQSEAHGLPLHLPGCKSPHRDPAPRGPARFLPLPGLPPAPPEPPGILAPQPPDVGSSDPLSMVGSQGRSPSYAS",0.011
7,"156 (protein, Fusion Protein) HGEGTFTSDKSQLLEKRLAHLFIEWLIAGGHSSGRLSPKGGGGGGGSGGGGSGGGGSA[… human IgG4 Fc with changes …]GGGSGSAHPIPDSSPLLQFGGQVRQRYLYTDDACQTEAHLEIREDGTVGGAADQSPESLLQLKALKPGVIQILGVKTSRFLCQRPDGALYGSLHFDPEACSFRELLLEDGYNVYQSEAHGLPLHLPGCKSPHRDPAPRGPARFLPLPGLPPAPPEPPGILAPQPPDVGSSDPLSMVGSQGRSPSYAS",0.00922
8,"157 (protein, Fusion Protein) HGEGTFTSDKSQLLEKRLAHLFIEWLIAGGPSKGRPPPKGGGGGGGSGGGGSGGGGSA[… human IgG4 Fc with changes …]GGGSGSAHPIPDSSPLLQFGGQVRQRYLYTDDACQTEAHLEIREDGTVGGAADQSPESLLQLKALKPGVIQILGVKTSRFLCQRPDGALYGSLHFDPEACSFRELLLEDGYNVYQSEAHGLPLHLPGCKSPHRDPAPRGPARFLPLPGLPPAPPEPPGILAPQPPDVGSSDPLSMVGSQGRSPSYAS",0.0121
9,"158 (protein, Fusion Protein) HGEGTFTSDKSQLLEKRLAHLFIEWLIKGGHSKGRPPPKGGGGGGGSGGGGSGGGGSA[… human IgG4 Fc with changes …]GGGSGSAHPIPDSSPLLQFGGQVRQRYLYTDDACQTEAHLEIREDGTVGGAADQSPESLLQLKALKPGVIQILGVKTSRFLCQRPDGALYGSLHFDPEACSFRELLLEDGYNVYQSEAHGLPLHLPGCKSPHRDPAPRGPARFLPLPGLPPAPPEPPGILAPQPPDVGSSDPLSMVGSQGRSPSYAS",0.0087
10,"161 (protein, Fusion Protein) HGEGTFTSDKSKQLAKRLVRLFIEWLIAGGHSSGKPPPKGGGGGGGSGGGGSGGGGSA[… human IgG4 Fc with changes …]GGGSGSAHPIPDSSPLLQFGGQVRQRYLYTDDACQTEAHLEIREDGTVGGAADQSPESLLQLKALKPGVIQILGVKTSRFLCQRPDGALYGSLHFDPEACSFRELLLEDGYNVYQSEAHGLPLHLPGCKSPHRDPAPRGPARFLPLPGLPPAPPEPPGILAPQPPDVGSSDPLSMVGSQGRSPSYAS",0.252
11,"162 (protein, Fusion Protein) HGEGTFTSDKSKQLAKRLAHLFIEWLIAGGHSSGKPPPKGGGGGGGSGGGGSGGGGSA[… human IgG4 Fc with changes …]GGGSGSAHPIPDSSPLLQFGGQVRQRYLYTDDACQTEAHLEIREDGTVGGAADQSPESLLQLKALKPGVIQILGVKTSRFLCQRPDGALYGSLHFDPEACSFRELLLEDGYNVYQSEAHGLPLHLPGCKSPHRDPAPRGPARFLPLPGLPPAPPEPPGILAPQPPDVGSSDPLSMVGSQGRSPSYAS",0.27
12,"163 (protein, Fusion Protein) HGEGTFTSDKSKQLAEEAVQLFIEWLLAGGPSKEIISGGGGGGGSGGGGSGGGGSA[… human IgG4 Fc with changes …]GGGSGSAHPIPDSSPLLQFGGQVRQRYLYTDDACQTEAHLEIREDGTVGGAADQSPESLLQLKALKPGVIQILGVKTSRFLCQRPDGALYGSLHFDPEACSFRELLLEDGYNVYQSEAHGLPLHLPGCKSPHRDPAPRGPARFLPLPGLPPAPPEPPGILAPQPPDVGSSDPLSMVGSQGRSPSYAS",0.374
13,"165 (protein, Fusion Protein) HGEGTFTSDLSKQLAKRLVRLFIEWLIKGGHSSGKPPPKGGGGGGGSGGGGSGGGGSA[… human IgG4 Fc with changes …]GGGSGSAHPIPDSSPLLQFGGQVRQRYLYTDDACQTEAHLEIREDGTVGGAADQSPESLLQLKALKPGVIQILGVKTSRFLCQRPDGALYGSLHFDPEACSFRELLLEDGYNVYQSEAHGLPLHLPGCKSPHRDPAPRGPARFLPLPGLPPAPPEPPGILAPQPPDVGSSDPLSMVGSQGRSPSYAS",0.173
14,"166 (protein, Fusion Protein) HGEGTFTSDKSKQLAKRLVREFIEWLIKGGHSSGKPPPKGGGGGGGSGGGGSGGGGSA[… human IgG4 Fc with changes …]GGGSGSAHPIPDSSPLLQFGGQVRQRYLYTDDACQTEAHLEIREDGTVGGAADQSPESLLQLKALKPGVIQILGVKTSRFLCQRPDGALYGSLHFDPEACSFRELLLEDGYNVYQSEAHGLPLHLPGCKSPHRDPAPRGPARFLPLPGLPPAPPEPPGILAPQPPDVGSSDPLSMVGSQGRSPSYAS",0.16
15,"167 (protein, Fusion Protein) HGEGTFTSDKSKQLAKRLVRHFIEWLIKGGHSSGKPPPKGGGGGGGSGGGGSGGGGSA[… human IgG4 Fc with changes …]GGGSGSAHPIPDSSPLLQFGGQVRQRYLYTDDACQTEAHLEIREDGTVGGAADQSPESLLQLKALKPGVIQILGVKTSRFLCQRPDGALYGSLHFDPEACSFRELLLEDGYNVYQSEAHGLPLHLPGCKSPHRDPAPRGPARFLPLPGLPPAPPEPPGILAPQPPDVGSSDPLSMVGSQGRSPSYAS",0.309
16,"168 (protein, Fusion Protein) HGEGTFTSDLSKQLAKRLVREFIEWLIKGGHSSGKPPPKGGGGGGGSGGGGSGGGGSA[… human IgG4 Fc with changes …]GGGSGSAHPIPDSSPLLQFGGQVRQRYLYTDDACQTEAHLEIREDGTVGGAADQSPESLLQLKALKPGVIQILGVKTSRFLCQRPDGALYGSLHFDPEACSFRELLLEDGYNVYQSEAHGLPLHLPGCKSPHRDPAPRGPARFLPLPGLPPAPPEPPGILAPQPPDVGSSDPLSMVGSQGRSPSYAS",0.0461
17,"169 (protein, Fusion Protein) HGEGTFTSDLSKQLAKRLVREFIEWLIEGGHSSGKPPPKGGGGGGGSGGGGSGGGGSA[… human IgG4 Fc with changes …]GGGSGSAHPIPDSSPLLQFGGQVRQRYLYTDDACQTEAHLEIREDGTVGGAADQSPESLLQLKALKPGVIQILGVKTSRFLCQRPDGALYGSLHFDPEACSFRELLLEDGYNVYQSEAHGLPLHLPGCKSPHRDPAPRGPARFLPLPGLPPAPPEPPGILAPQPPDVGSSDPLSMVGSQGRSPSYAS",0.0596
